Data as given in patent US7399608B2, “Microbial detection and quantification” (Kimberly-Clark Worldwide, Inc., priority 2003, dated 2008).

What was measured:
[1] = system: bacteria in aged chicken juice; experiment: N-docosyl-merocyanine dye coated onto cotton fabric, aged chicken juice; conditions: pinkish-orange areas after 1 N sodium hydroxide
[2] = system: microbes in aged female human urine; experiment: N-methylmerocyanine coated onto kitchen paper towel, aged urine
[3] = system: budgerigar feces suspension; experiment: N-methyl merocyanine coated paper towel, pet bird feces suspension; conditions: 0.5 g dye in 20 ml water on SCOTT towel
Method: Budgerigar feces was collected from a caged pet budgie, and shaken in approximately 10 ml of Atlanta city domestic tap water. N-methyl merocyanine dye of structure 33 above was synthesized as described above.

[4] = system: bacteria from aged chicken juice; experiment: Reichardt's dye indicator spray on surfaces contaminated with aged chicken; conditions: 160 mg in 10 ml acetonitrile, hot plate surface

Structure (SMILES): CCCCCCCCCCCCCCCCCCCCCC[n+]1ccc(C=Cc2ccc(O)cc2)cc1.[Br-]
- color change of dye + NaOH spots on cotton [1]: color change from pinkish-orange to very pale yellow

Structure (SMILES): COc1cc(/C=C/c2cc[n+](C)cc2)ccc1[O-] [N-methyl merocyanine dye]
- color change of coated towel with aged urine ([2]; urine stored 24 hours at 37° C., approximately 1×10^5 CFU/ml expected): immediate color change from deep orange to pale yellow
- color change of coated towel with aged urine ([2]; urine stored 8 days at room temperature, 0.5 g dye in 20 ml water on SCOTT towel): immediate color change from deep orange to pale yellow
- color change of coated towel with budgie feces suspension [3]: immediate color change from deep orange to pale yellow

Structure (SMILES): [O-]c1c(-c2ccccc2)cc(-[n+]2c(-c3ccccc3)cc(-c3ccccc3)cc2-c2ccccc2)cc1-c1ccccc1 [Reichardt's dye, 2,6-diphenyl-4-(2,4,6-triphenylpyridinio)-phenolate]
- color change of indicator spray on pattern of aged raw chicken juice [4]: de-colorization of the dye in the exact form of the pattern of chicken juice
